Data as given in the supplement of paper PMC9446081.
Out of some 39,000 compounds screened, about 220 (0.56%) showed activity. The list shows a part of the results.
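Also: static incubation at 37 °C against the wild-type strain, values averaged over two biological replicates.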

What follows are compounds tested on Escherichia coli K-12 BW25113 (assay: relative growth (OD600 normalised to plate interquartile mean) (fraction); higher = less growth inhibition, active = 0.2 or less). Details: 50 µM; LB; incubation time: overnight (16-24 h).
In the case of Cc1ccc(S(=O)(=O)Nc2ccc3c(c2)CC(=O)N([C@H](C)CO)C[C@H](C)[C@H](CN(C)S(=O)(=O)c2c(C)noc2C)O3)cc1, the relative growth is reported as inactive: 0.99. For COc1ccc(-c2cnc3c(c2)C(=O)N([C@H](C)CO)C[C@@H](C)[C@H](CN(C)C(=O)Cc2cccnc2)O3)cc1, the relative growth was inactive: 0.994. C[C@@H]1CN([C@H](C)CO)C(=O)Cc2cc(NC(=O)Nc3ccc(F)cc3)ccc2O[C@H]1CN(C)C(=O)Nc1cccc2ccccc12 was tested, and the relative growth was inactive: 1.02. In the case of C[C@H]1CN([C@@H](C)CO)S(=O)(=O)c2ccc(-c3cncnc3)cc2O[C@H]1CN(C)C(=O)NC1CCCC1, the relative growth is reported as inactive: 1. In the case of Cc1ccc(S(=O)(=O)N(C)C[C@@H]2OCCCC[C@H](C)Oc3ccc(NC(=O)Nc4ccc5c(c4)OCO5)cc3C(=O)N([C@@H](C)CO)C[C@H]2C)cc1, the relative growth is reported as inactive: 1.03. CN(C)CC(=O)N1[C@@H]2Cn3c(ccc(-c4ccccc4)c3=O)[C@H]1[C@@H](C(=O)N1CCOCC1)[C@@H]2CO was tested, and the relative growth was inactive: 0.933. In the case of C[C@@H]1CN([C@H](C)CO)C(=O)c2cccc(NC(=O)Nc3cccc4ccccc34)c2O[C@H]1CN(C)C(=O)Nc1ccc(C(F)(F)F)cc1, the relative growth is reported as inactive: 0.865. With COc1ccc(CN(C)C[C@H]2OCCCC[C@H](C)Oc3ccc(NC(=O)Nc4ccc(C(F)(F)F)cc4)cc3C(=O)N([C@H](C)CO)C[C@@H]2C)cc1 the relative growth was inactive: 0.995. With C[C@@H]1CN([C@H](C)CO)S(=O)(=O)c2ccc(-c3cccnc3)cc2O[C@@H]1CN(C)C(=O)c1ccc2c(c1)OCO2 the relative growth was inactive: 1.01. With Cc1noc(C)c1S(=O)(=O)Nc1ccc2c(c1)CC(=O)N([C@H](C)CO)C[C@H](C)[C@@H](CN(C)CC1CC1)O2 the relative growth was inactive: 1.01. With Cn1cnc(S(=O)(=O)N2C[C@H](O)COC[C@H]3O[C@H](CC(=O)NCc4cccc(F)c4)CC[C@@H]32)c1 the relative growth was inactive: 0.998. In the case of Cc1cn([C@@H]2O[C@H](CO)[C@@H](O)[C@H]2O)c(=O)nc1N, the relative growth is reported as inactive: 1. In the case of C[C@@H]1CCCCO[C@@H](CN(C)C(=O)Nc2ccccc2)[C@H](C)CN([C@@H](C)CO)C(=O)c2cc(NS(=O)(=O)c3ccc(F)cc3)ccc2O1, the relative growth is reported as inactive: 1.05. For c1cnc(-c2cc[nH]n2)cn1, the relative growth was inactive: 0.982. With CNC[C@H]1OCCCC[C@H](C)Oc2ccc(NC(=O)Nc3cccc4ccccc34)cc2C(=O)N([C@H](C)CO)C[C@@H]1C the relative growth was inactive: 1. For C[C@@H]1CCCCO[C@@H](CN(C)C(=O)c2ccncc2)[C@H](C)CN([C@@H](C)CO)C(=O)c2cc(NC(=O)C3CCCCC3)ccc2O1, the relative growth was inactive: 1. C[C@H](CO)N1C[C@H](C)[C@H](CN(C)Cc2ccc3c(c2)OCO3)Oc2ccc(NC(=O)Nc3cccc4ccccc34)cc2C1=O was tested, and the relative growth was inactive: 1.03. For COc1ccc(CN(C)C[C@@H]2OCCCC[C@@H](C)Oc3ccc(NS(=O)(=O)c4ccc(F)cc4)cc3C(=O)N([C@H](C)CO)C[C@@H]2C)cc1, the relative growth was inactive: 1.01. For CSCCC(N)C(=O)O (stereo unspecified), the relative growth was inactive: 1.11. In the case of C[C@H]1CN([C@@H](C)CO)C(=O)c2cccc(NC(=O)C3CC3)c2O[C@H]1CN(C)Cc1ccc(C(=O)O)cc1, the relative growth is reported as inactive: 0.992. For COc1ccc([Si](C)(C)[C@@H]2[C@@H](CC(=O)N(CCO)Cc3ccccc3)O[C@]3(C(=O)N(C)c4c(Br)cc(C)cc43)[C@H]2C)cc1, the relative growth was inactive: 1.05. With C[C@H](CO)N1C[C@H](C)[C@@H](CN(C)C)Oc2ccc(NC(=O)Cc3cn(C)c4ccccc34)cc2CC1=O the relative growth was inactive: 0.951. C[C@@H]1CCCCO[C@H](CN(C)C(=O)c2ccncc2)[C@@H](C)CN([C@H](C)CO)C(=O)c2cc(NS(C)(=O)=O)ccc2O1 was tested, and the relative growth was inactive: 0.986. With CN(C)CC(=O)N[C@H]1CC[C@H](CCNC(=O)C2CCC2)O[C@@H]1CO the relative growth was inactive: 0.959. For O=C(CCCCC(=O)N/N=C/[C@H](O)[C@@H](O)[C@H](O)[C@H](O)CO)NO, the relative growth was inactive: 1.01. With O=C(C=Cc1ccc(O)cc1)c1ccccc1O the relative growth was inactive: 0.904. In the case of C[C@@H]1CN([C@H](C)CO)S(=O)(=O)c2ccc(-c3ccncc3)cc2O[C@H]1CN(C)S(=O)(=O)c1ccccc1F, the relative growth is reported as inactive: 1. With O=c1[nH]c2ccc(F)cc2[nH]1 the relative growth was inactive: 0.994. C[C@H](CO)N1C[C@H](C)[C@@H](CN(C)C(=O)Nc2ccc(F)cc2)Oc2c(NS(C)(=O)=O)cccc2C1=O was tested, and the relative growth was inactive: 0.999. For C[C@H](CO)N1C[C@H](C)[C@@H](CN(C)Cc2ccc(C(=O)O)cc2)Oc2ccc(NC(=O)Nc3cccc4ccccc34)cc2C1=O, the relative growth was inactive: 0.983. COc1ccc2c3c([nH]c2c1)[C@H](CO)N(C[C@]13CCN(CC1)CC1CCCC1)C(=O)CN1CCOCC1 was tested, and the relative growth was inactive: 0.987.
